Source: PubChem BioAssay AID1463 (National Center for Advancing Translational Sciences (NCATS), 2008)
Hit rate of the full screen: of about 280,000 compounds, about 2,600 (0.93%) were called active. Another 8% or so got no clear call; they are omitted. Calls come from the whole dose curve; as a rule, active = well fitted curve in the direction sought with a large enough effect; inconclusive = small, poorly fitted or top-dose-only effect; inactive = flat fitted curve, though single readings scatter. Only a part is listed here, and it is no random draw.

Assay: Counterscreen qHTS for Inhibitors of Tau Fibril Formation, Fluorescence Polarization; note: nearly all actives have a fitted effect of over 55% in size
Details: tau K18 P301L (four-repeat tau fragment) Alexa594 fluorescence, heparin fibrillization; series mostly up to 57.7 µM; activity change, negative = decrease: at the top concentration
Source text: NIH Molecular Libraries Probe Production Network [MLPCN]
NIH Chemical Genomics Center [NCGC]
Assay Provider: Carlo Ballatore, University of Pennsylvania
The microtubule-associated protein tau is an abundant protein in the axons of neurons that stabilizes microtubules. With its ability to modulate microtubule dynamics, tau contributes directly or indirectly, to key structural and regulatory cellular functions. Particularly important is the influence tau exerts on axonal transport, which allows signaling molecules, trophic factors and other essential cellular constituents to travel along the axons. Under pathological conditions, tau becomes sequestered into insoluble aggregates called neurofibrillary tangles. This phenomenon is believed to have pathological consequences by promoting axonal transport deficits that ultimately lead to synaptic dysfunction and neuronal loss. To identify inhibitors of tau aggregation, a heparin-induced tau fibril formation assay was used that employed a recombinantly expressed fragment of tau, K18 (Q242-E372), bearing a P301L mutation (Gustke et al. 1994; Hong et al. 1998). […] Total fluorescence (555 nm excitation and 632 nm emission) was measured to identify fluorescent or absorbent compounds at this wavelength. Such compounds may be artifacts that interfere with the Alexa 594 Tau fluorescence polarization assay.
Gustke, N., B. Trinczek, et al. (1994). "Domains of tau protein and interactions with microtubules." Biochemistry 33(32): 9511-22.
Hong, M., V. Zhukareva, et al. (1998).
Li, W. and V. M. Lee (2006). "Characterization of two VQIXXK motifs for tau fibrillization in vitro." Biochemistry 45(51): 15692-701.
von Bergen, M., S. Barghorn, et al. (2001). "Mutations of tau protein in frontotemporal dementia promote aggregation of paired helical filaments by enhancing local beta-structure." J Biol Chem 276(51): 48165-74.
NCGC Assay Protocol Summary:
For screening, 2 uL/well human K18 P301L (15 uM unlabeled and 0.24 uM Alexa 594-labeled tau final concentrations) in reagent buffer (100 mM sodium acetate pH 7) was dispensed into black solid 1536-well plates (Grenier) using a solenoid-based dispenser. Following transfer of 23 nL compound or DMSO vehicle by a pin tool, 2 uL/well heparin (20 uM final concentration) in reagent buffer was added and the plate centrifuged 15 s at 1000 RPM. Plates were incubated 6 hr at 37 C and then 1 uL/well ThT (30 uM final concentration) was added. After a 1 hr ambient incubation, the plates were read by an Envision (Perkin Elmer) to monitor Alexa 594 FP (555 nm excitation and 632 nm emission).
Keywords: NIH Roadmap, MLPCN, MLI, MLSMR, NCGC, qHTS, tau, tauopathies, Alzheimer's disease, fibril, neurodegeneration, aggregation
% is set by controls: 0 for no effect and ±100 for the full control effect; potency is the fitted concentration of half-maximal effect; tags give direction and shape of the fitted curve or compound fluorescence and quenching.

Row | SMILES | activity change, negative = decrease | Potency
1 | C[C@H]1CCC[C@]2(O[C@@H](CCO)C[C@H](O)[C@H]2O)O1 | inactive: -13.5% | 
2 | CN1CCN(CCCN2c3ccccc3Sc3ccc(C(F)(F)F)cc32)CC1 |  | inactive
3 | COC(=O)Nc1nc2ccc(C(=O)c3cccs3)cc2[nH]1 |  | inactive
4 | C=CCCC(=O)Nc1nc(C)c(-c2csc(Nc3ccccc3OC)n2)s1 |  | active: 12.6 µM [quencher]
5 | CC(C)Cn1c(N)c(C(=O)COC(=O)c2cc(-c3ccco3)nc3ccccc23)c(=O)n(C)c1=O | inactive: -24.6% | 
6 | CCN(CC)c1ccc(/C=N/Nc2nc3ccccc3[nH]2)c(O)c1 |  | active: 17.8 µM [quencher]
7 | COc1cccc([C@@H]2Oc3ccc(OC)cc3C(=O)[C@H]2OC(=O)Nc2cc(OC)c(OC)c(OC)c2)c1 | inactive: -22.7% | 
8 | O=C(/C=C/c1ccc2c(c1)OCO2)c1ccc(F)cc1 | inactive: -11% | 
9 | CCCc1c(-c2ccc(O)cc2)nn(-c2ccc(O)cc2)c1-c1ccc(O)cc1 | inactive: -34.5% | 
10 | CCOc1ccc(NC(=O)Cn2cc(C(=O)c3ccco3)c3ccccc32)cc1 | inactive: -28.5% | 
11 | Cc1ccc(NC(=S)N/N=C/c2ccc([N+](=O)[O-])s2)cc1 |  | active: 15.8 µM [quencher]
12 | CC(=O)c1cccc(N=Nc2c(C)[nH]c3ccccc23)c1 |  | active: 14.1 µM [quencher]
13 | COc1ccc(NCc2cc3cc4c(cc3n(CC(=O)Nc3ccc(F)cc3)c2=O)OCCO4)cc1 |  | active: 11.2 µM [quencher]
14 | CC(C)(C)c1ccc(C(=O)NCCC(=O)NCc2ccco2)cc1 |  | active: 14.1 µM [quencher]
15 | CCOC(=O)Cc1csc(NC(=O)/C=C\c2ccccc2Cl)n1 | inactive: -28.6% | 
16 | COc1ccccc1OCCn1cc(/C=N/NC(=O)c2ccncc2)c2ccccc21 |  | active: 12.6 µM [quencher]
17 | CCN1CC2=C(OC(N)=C(C#N)C2c2cccs2)/C(=C/c2cccs2)C1 (stereo not given) | inactive: -25.1% | 
18 | O=[N+]([O-])c1cc(/C=N\Nc2nc(-c3ccccc3)cs2)ccc1O |  | active: 10 µM [quencher]
19 | COc1ccc(-c2[nH]c3ccccc3c2SCCNC(=O)c2ccc(S(=O)(=O)N(C)C)cc2)cc1 |  | active: 3.98 µM [quencher]
20 | CCOc1ccc(NC(=S)N(CCc2c(C)[nH]c3ccccc23)Cc2ccco2)cc1 |  | active: 12.6 µM [quencher]
21 | COc1cccc(-c2cc(=O)c3cc(NC(=O)c4ccc(N(C)C)cc4)ccc3[nH]2)c1 | inactive: -9.36% | 
22 | CCN(CC)c1ccc(NC(=O)Cn2ncc3c(C)n(Cc4ccccc4F)c(C)c3c2=O)c(C)c1 | inactive: -6.43% | 
23 | COc1cc(C2Oc3cc(C4Oc5cc(O)cc(O)c5C(=O)C4O)ccc3OC2CO)ccc1O (stereo not given) |  | inactive

Row | SMILES | activity change, negative = decrease | Potency
24 | CCOc1ccc(NS(=O)(=O)c2ccc3[nH]c4c(c3c2)CCCCC4)cc1 |  | active: 14.1 µM [quencher]
25 | COc1ccc2c(c1)O[C@H](c1ccc3c(c1)OCO3)[C@@H](OC(=O)Nc1cc(OC)c(OC)c(OC)c1)C2=O | inactive: -17.2% | 
26 | CCOC(=O)CN1C(c2ccc(O)cc2)Nc2ccc(Br)cc2C1c1ccccc1 (stereo not given) |  | active: 7.08 µM [quencher]
27 | Nc1nn(-c2ccccc2)nc1C(=O)OCc1ccccc1 | inactive: -29.2% | 
28 | COc1ccc(OC)c(/C=N/N(C)c2ccccc2)c1 |  | active: 11.2 µM [quencher]
29 | O=C(Nc1cccc(Cl)c1)OCCN1CCN(Cc2ccccc2)CCC1=O | inactive: -21.6% | 
30 | CC1(C)CC(=O)c2c(oc3cc(O)c(O)cc23)C1 | inactive: -29.7% | 
31 | O=C(NCc1nc2ccccc2[nH]1)C1=C[C@H](c2csc3ccccc23)C[C@H](OCc2ccc(CO)cc2)O1 | inactive: -27.5% | 
32 | CCOC(=O)CSc1ncnc2c1c(-c1ccccc1)cn2-c1ccc(OC)cc1 | inactive: -20.9% | 
33 | O=C1CC(c2ccccc2)Oc2cc(O)cc(O)c21 (stereo not given) | inactive: -7.91% | 
34 | CCN(CC)C(=S)SSC(=S)N(CC)CC |  | inactive
35 | C[C@@H](C(=O)NCCc1c[nH]c2ccccc12)[C@@H]1C[C@@]1(C)[C@@H](NC(=O)OCc1ccccc1)c1ccccc1 | inactive: 8.66% | 
36 | C[C@]12C[C@H](O)[C@H]3[C@@H](CCC4=CC(=O)CC[C@@]43C)[C@@H]1CC[C@@H]2C(=O)CO | inactive: -4.49% | 
37 | Cc1ccc(NC(=O)c2cccc(N(C)C)c2)cc1NC(=O)c1ccc(O)cc1 | inactive: -9.34% | 
38 | O=C1CSc2ccc(C(=O)Nc3cccc(S(=O)(=O)Nc4ccc(Br)cc4)c3)cc2N1 |  | active: 10 µM [quencher]
39 | CCCCCCN1C=CC=C/C1=C/C=C(C#N)C#N | inactive: 5.62% | 
40 | CC(C)NCC(O)c1ccc(O)c(O)c1 (stereo not given) |  | inactive
41 | C#C[C@]1(O)CC[C@H]2[C@@H]3CCc4cc(O)ccc4[C@H]3CC[C@@]21C | inactive: -15.5% | 
42 | CC(C)CCNC(=O)CCC(=O)NNc1nc2ccccc2c2nc(-c3ccccc3)nn12 | inactive: -20.5% | 
43 | COC(=O)c1c(C)[nH]c(C)c1C(=O)c1ccccc1Cc1ccccc1 |  | inactive
44 | CSc1cccc(NC(=O)Cn2ncn3c(cc4ccccc43)c2=O)c1 |  | active: 20 µM [quencher]
45 | Cn1c(N)c(C(=O)COC(=O)c2cc(C3CC3)nc3ccccc23)c(=O)n(C)c1=O | inactive: -29.2% | 
46 | O=c1[nH]c2cc(C(F)(F)F)ccc2n1-c1cc(C(F)(F)F)ccc1O |  | inactive

Row | SMILES | activity change, negative = decrease | Potency
47 | Cc1ccc(C(=O)N/C(=C/c2ccco2)C(=O)NCCc2c[nH]c3ccccc23)cc1 | inactive: -10.1% | 
48 | COc1ccc(-c2csc3nc(-c4ccccc4)oc(=O)c23)cc1OC | inactive: 5.23% | 
49 | O=C(Nc1cccc2ccccc12)/C(=C/c1cccc([N+](=O)[O-])c1)NC(=O)c1cccs1 | inactive: -29.8% | 
50 | Oc1ccc(/C=N/N=C(c2ccccc2)c2ccccc2)c(O)c1O |  | active: 12.6 µM [quencher]
51 | COc1ccc(NC(=O)c2ccc(-c3ccc([N+](=O)[O-])cc3)o2)cc1OC |  | active: 11.2 µM [quencher]
52 | O=C(Nc1ccc(N2CCCC2)c(S(=O)(=O)Nc2cccc(C(F)(F)F)c2)c1)c1cccs1 |  | active: 10 µM [quencher]
53 | NC(Cc1cc(I)c(Oc2ccc(O)c(I)c2)c(I)c1)C(=O)O (stereo not given) | inactive: -24.4% | 
54 | COc1ccc([C@@H](C)C(=O)c2ccc(O)cc2O)cc1 | inactive: -26.7% | 
55 | c1ccc(-c2nc[nH]c2-c2ccccc2)cc1 | inactive: -6.93% | 
56 | Cc1ccc2c(c1)sc1nc(=O)n(-c3ccc(Cl)c(Cl)c3)c(=O)n12 | inactive: -24.9% | 
57 | O=c1oc2c(O)c(O)cc3c(=O)oc4c(O)c(O)cc1c4c23 | inactive: -31% | 
58 | CCOC(=O)C1CCCN(S(=O)(=O)c2ccc(F)c(C(=O)Nc3ccc(F)c(F)c3)c2)C1 (stereo not given) | inactive: -22.3% | 
59 | CCN(Cc1ccccc1)C(=O)c1nn(-c2ccc(OC)cc2)c(=O)c2c1c1ccccc1n2C | inactive: -19.2% | 
60 | Nc1c2ccccc2nc2ccccc12 |  | inactive
61 | N[C@@H](Cc1cc(I)c(Oc2ccc(O)c(I)c2)c(I)c1)C(=O)O | inactive: -5.97% | 
62 | Cc1cc(C)cc(NC(=O)Nc2cc(S(=O)(=O)N(C)C)ccc2C)c1 |  | active: 15.8 µM [quencher]
63 | CCCOC(=O)c1ccc(Oc2cn[nH]c2-c2ccc(O)cc2O)cc1 |  | active: 5.01 µM [quencher]
64 | COC(=O)C1=C(C)NC(C)=C([N+](=O)[O-])C1c1ccccc1C(F)(F)F (stereo not given) |  | inactive
65 | COc1cc(-c2nc3cccc(C)n3c2Nc2ccc3c(c2)OCCO3)ccc1O |  | active: 17.8 µM [quencher]
66 | O=Cc1c2[nH]c3ccccc3c2cc2[nH]c3ccccc3c12 |  | inactive
67 | Cc1cncn1CCc1nc2c3ccccc3nc(SCC(=O)Nc3cccc(Cl)c3)n2n1 | inactive: -0.435% | 
68 | CNC(=O)c1cc(Nc2nnc(-c3ccc(O)cc3)c3ccccc23)ccc1OC | inactive: -17.5% | 
69 | O=C1OCCN1C(=O)[C@H]1[C@H](c2ccc(F)cc2)C(c2ccc(F)cc2)=NN1c1ccc(Br)cc1 | inactive: -3.81% | 

Row | SMILES | activity change, negative = decrease | Potency
70 | Cc1cc(N2CCOCC2)nc2ccc(NC(=S)NCc3ccc4c(c3)OCO4)cc12 |  | active: 14.1 µM [quencher]
71 | CCCCN(CC)CCNC(=O)c1nn(-c2ccc(OC)cc2)c(=O)c2c1c1ccccc1n2C | inactive: -21.2% | 
72 | COc1ccc(COC(=O)N/N=C2/C[C@@H](O)[C@@H](O)[C@@H]3[C@@H]4C(=O)N(c5cccc(Oc6ccccc6)c5)C(=O)[C@H]4CC[C@H]23)cc1 | inactive: -6.58% [at 11.6 µM] | 
73 | Oc1ccc(-c2csc(-c3ccccc3)n2)cc1O |  | active: 15.8 µM [quencher]
74 | O=C1OC(c2ccc(O)cc2)(c2ccc(O)cc2)c2ccccc21 | inactive: -28.2% | 
75 | CC(/C=N/NC(=O)c1cccs1)=C\c1ccccc1 | inactive: -23.4% | 
76 | Nc1ccccc1C(=O)/C=C/c1ccc2c(c1)OCO2 |  | inactive
77 | O=C(/C=C/c1cccc([N+](=O)[O-])c1)Nc1cccc(NC(=O)c2cccs2)c1 |  | active: 12.6 µM [quencher]
78 | Cc1ccc(C(=O)N/C(=C/c2cccs2)C(=O)NCCc2c[nH]c3ccccc23)cc1 | inactive: 10.2% | 
79 | COc1cc(C2NC(=O)C(C#N)=C(Nc3cccc(C)c3)S2)ccc1O (stereo not given) | inactive: -10.2% | 
80 | C[C@](N)(Cc1ccc(O)cc1)C(=O)O |  | inactive
81 | COc1ccc2c(c1)O[C@H](c1ccc3c(c1)OCO3)[C@@H](OC(=O)Nc1ccc(C)c(Br)c1)C2=O | inactive: -23.1% | 
82 | O=C(CSc1nc2c([nH]c3ccccc32)c(=O)n1-c1ccc(F)cc1)NCc1ccco1 | inactive: -17.5% | 
83 | CCOC(=O)/C(C#N)=C/c1c[nH]c2ccccc12 | inactive: 3.38% | 
84 | Oc1cc2c(cc1O)[C@@H](c1ccccc1)CNCC2 | inactive: -4.53% | 
85 | Cc1c(Cl)cccc1Nc1ccccc1C(=O)O | inactive: -10.1% | 
86 | O=C(c1cc2c(s1)-c1ccccc1OC2)N1CCN(c2ccccc2)CC1 | inactive: 4.33% | 
87 | O=c1cc(-c2cc(O)c(O)c(O)c2)oc2cc(O)cc(O)c12 |  | active: 15.8 µM [quencher]
88 | CCOC(=O)c1sc(NC(=O)Nc2ccccc2Cl)cc1C |  | active: 8.91 µM [quencher]
89 | Cc1ccc2[nH]c(-c3cccc(N)c3)cc2c1 |  | active: 14.1 µM [quencher]
90 | Oc1ccc(/C=N/Nc2ccnc3cc(Cl)ccc23)cc1O |  | active: 15.8 µM [quencher]
